Reference: a collection of fitness landscapes (doi:10.1016/j.celrep.2020.107928)
Whole data set: some 81,000 sequences, median “one-hybrid fitness for binding parS DNA” near -0.17, cut for the highest 2% near 0.51. The list shows a part of the results.

B1: Caulobacter ParB omega fusion; a variant is named by its letters at X, in order, B8GW30 (parent)
chain: MESVVVGEPGMSEGRRGLGRGLSALLGEVDAAPAQAPGEQLGGSREAPIEILQRNPDQPRRTFREEDLEDLSNSIREKGVLQPILVRPSPDTAGEYQIVAGERAWRAAQRAGLKTVPIMVRELDDLAVLEIGIIENVQRADLNVLEEALSYKVLMEKFERTQENIAQTIGKSXSHVANXMRLLXLPDEVQSYLVSGELTAXHARAIAAAADPVALAKQIIEGGLSVRETEALARKAPNLSAGKSKGGRPPRVKDTDTQALESDLSSVLGLDVSIDHRGSTGTLTITYATLEQLDDLCNRLTRGI

Variants of: B1
Assay: one-hybrid fitness for binding parS DNA (scaled: cognate 1, non-cognate 0); higher = stronger binding
Conditions: with parS DNA site
Procedure, shortened: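 Fitness is the rescaled log change in variant-to-wild-type read ratio, measured by Illumina sequencing of plasmids before and after bacterial one-hybrid selection. The scale puts cognate at 1 and non-cognate at 0. Selection of Caulobacter ParB libraries, four specificity codons randomised, took place in E. coli USO with a HIS3 reporter, site 19 bp from the promoter, over 48 hours at 37°C on M9-minus-histidine with 0.1 mM IPTG and 5 mM 3-AT.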

Row | Variant | one-hybrid fitness for binding parS DNA
1 | VNQR | ≤ 0.2
2 | GLRP | ≤ 0.2
3 | VVRW | ≤ 0.2
4 | NLHY | ≤ 0.2
5 | QKKW | ≤ 0.2
6 | VQGF | ≤ 0.2
7 | RCII | 0.233
8 | RERR | ≤ 0.2
9 | PGKF | ≤ 0.2
10 | WMYG | ≤ 0.2
11 | KQAL | ≤ 0.2
12 | VTNT | ≤ 0.2
13 | INRE | ≤ 0.2
14 | ITRA | ≤ 0.2
15 | RKCW | ≤ 0.2
16 | GPPN | ≤ 0.2
17 | RFDV | ≤ 0.2
18 | LNDN | ≤ 0.2
19 | DVSE | ≤ 0.2
20 | TIFK | ≤ 0.2
21 | PTRQ | ≤ 0.2
22 | QESR | ≤ 0.2
23 | RYQN | 0.318
24 | QIIT | ≤ 0.2

Row | Variant | one-hybrid fitness for binding parS DNA
25 | HMWG | ≤ 0.2
26 | PYLC | ≤ 0.2
27 | RSQN | 0.427
28 | QLRG | ≤ 0.2
29 | VRSK | ≤ 0.2
30 | QPLV | ≤ 0.2
31 | CSYD | ≤ 0.2
32 | YQWS | ≤ 0.2
33 | YCQR | ≤ 0.2
34 | THQS | ≤ 0.2
35 | PVAF | ≤ 0.2
36 | PQRR | ≤ 0.2
37 | YEYR | ≤ 0.2
38 | ICVT | ≤ 0.2
39 | KSIF | ≤ 0.2
40 | CFLG | ≤ 0.2
41 | KNTI | ≤ 0.2
42 | TFRH | ≤ 0.2
43 | ESKG | ≤ 0.2
44 | CQIS | ≤ 0.2
45 | QRYW | ≤ 0.2
46 | DIQS | ≤ 0.2
47 | RNKD | ≤ 0.2
48 | DVQC | ≤ 0.2

Row | Variant | one-hybrid fitness for binding parS DNA
49 | REIA | ≤ 0.2
50 | SWDS | ≤ 0.2
51 | FSIY | ≤ 0.2
52 | RYWM | 0.342
53 | DYPR | ≤ 0.2
54 | PDYG | ≤ 0.2
55 | WQLT | ≤ 0.2
56 | DLDD | ≤ 0.2
57 | KWHG | 0.22
58 | STYW | ≤ 0.2
59 | VREG | ≤ 0.2
60 | TTGG | ≤ 0.2
61 | RETG | 0.249
62 | GCPF | ≤ 0.2
63 | ISML | ≤ 0.2
64 | NFTC | ≤ 0.2
65 | ERDI | ≤ 0.2
66 | ARMV | ≤ 0.2
67 | TSWM | ≤ 0.2
68 | AWGR | ≤ 0.2
69 | GSKC | ≤ 0.2
70 | YEAC | ≤ 0.2
71 | RHYK | ≤ 0.2
72 | NNIR | ≤ 0.2

Row | Variant | one-hybrid fitness for binding parS DNA
73 | ISKG | ≤ 0.2
74 | LYIP | ≤ 0.2
75 | LQKM | ≤ 0.2
76 | RGFQ | ≤ 0.2
77 | KTDK | ≤ 0.2
78 | QLWS | ≤ 0.2
79 | MRLG | ≤ 0.2
80 | LTQL | ≤ 0.2
81 | PRWE | ≤ 0.2
82 | HRWR | ≤ 0.2
83 | QPNH | ≤ 0.2
84 | TLVP | ≤ 0.2
85 | TSAA | ≤ 0.2
86 | QHED | ≤ 0.2
87 | DDAT | ≤ 0.2
88 | RSQI | ≤ 0.2
89 | QNSL | ≤ 0.2
90 | HGQW | ≤ 0.2
91 | FRWL | ≤ 0.2
92 | LLFA | ≤ 0.2
93 | PNPS | ≤ 0.2
94 | CYYG | ≤ 0.2
95 | GTKA | ≤ 0.2
96 | ESHS | ≤ 0.2

Row | Variant | one-hybrid fitness for binding parS DNA
97 | DACT | ≤ 0.2
98 | AMTV | ≤ 0.2
99 | LMSL | ≤ 0.2
100 | RMKV | ≤ 0.2
101 | QMVS | ≤ 0.2
102 | DRYK | ≤ 0.2
103 | TTTW | ≤ 0.2
104 | SADH | ≤ 0.2
105 | ETGR | ≤ 0.2
106 | GSMY | ≤ 0.2
107 | TDHL | ≤ 0.2
108 | KRGF | ≤ 0.2
109 | SYVS | ≤ 0.2
110 | LDTW | ≤ 0.2
111 | MKTR | ≤ 0.2
112 | GMCE | ≤ 0.2
113 | SKDT | ≤ 0.2
114 | QHNL | ≤ 0.2
115 | IRKW | ≤ 0.2
116 | RPCI | ≤ 0.2
117 | RNQN | 0.284
118 | NVWL | ≤ 0.2
119 | HNTM | ≤ 0.2
120 | ACCP | ≤ 0.2

Row | Variant | one-hybrid fitness for binding parS DNA
121 | FVQC | ≤ 0.2
122 | QQVL | ≤ 0.2
123 | RPRE | ≤ 0.2
124 | AGSL | ≤ 0.2
125 | CLVM | ≤ 0.2
126 | HFKK | ≤ 0.2
127 | TACC | ≤ 0.2
128 | PNKR | ≤ 0.2
129 | PNDH | ≤ 0.2
130 | YRTA | ≤ 0.2
131 | TMRY | ≤ 0.2
132 | CQNS | ≤ 0.2
133 | VMQG | ≤ 0.2
134 | RECR | ≤ 0.2
135 | FAAV | ≤ 0.2
136 | NSSA | ≤ 0.2
137 | TNWR | ≤ 0.2
138 | CDLS | ≤ 0.2
139 | QACY | ≤ 0.2
140 | SLPH | ≤ 0.2
141 | PLSC | ≤ 0.2
142 | PAMC | ≤ 0.2
143 | DTPC | ≤ 0.2
144 | RCAL | ≤ 0.2

Row | Variant | one-hybrid fitness for binding parS DNA
145 | PCTQ | ≤ 0.2
146 | PMPS | ≤ 0.2
147 | SWPR | ≤ 0.2
148 | ITVG | ≤ 0.2
149 | TLIW | ≤ 0.2
150 | TPNR | ≤ 0.2
151 | IHRT | ≤ 0.2
152 | GPIE | ≤ 0.2
153 | AEHR | ≤ 0.2
154 | WGGS | ≤ 0.2
155 | RLTK | ≤ 0.2
156 | RMTS | 0.975
157 | IYKM | ≤ 0.2
158 | SQNC | ≤ 0.2
159 | SCCG | ≤ 0.2
160 | NGNA | ≤ 0.2
161 | QRFD | ≤ 0.2
162 | DEPW | ≤ 0.2
163 | VMAH | ≤ 0.2
164 | LRIA | ≤ 0.2
165 | VSMP | ≤ 0.2
166 | KNHT | ≤ 0.2
167 | NDRG | ≤ 0.2
168 | HNRT | ≤ 0.2

Row | Variant | one-hybrid fitness for binding parS DNA
169 | CCPG | ≤ 0.2
170 | SQQN | ≤ 0.2
171 | RTPM | ≤ 0.2
172 | FMDL | ≤ 0.2
173 | FNRV | ≤ 0.2
174 | LTFL | ≤ 0.2
175 | QTMN | ≤ 0.2
176 | FAPV | ≤ 0.2
177 | ECTN | ≤ 0.2
178 | SGST | ≤ 0.2
179 | SQLS | ≤ 0.2
180 | RGGS | 0.733
181 | MCMG | ≤ 0.2
182 | MDEG | ≤ 0.2
183 | MSAC | ≤ 0.2
184 | IYRI | ≤ 0.2
185 | PLHS | ≤ 0.2
186 | PHNH | ≤ 0.2
187 | DQGY | ≤ 0.2
188 | RSQQ | ≤ 0.2
189 | MGWS | ≤ 0.2
190 | PPAN | ≤ 0.2
191 | YYLR | ≤ 0.2
192 | IMRY | ≤ 0.2

Row | Variant | one-hybrid fitness for binding parS DNA
193 | WDPR | ≤ 0.2
194 | LWDT | ≤ 0.2
195 | DNQC | ≤ 0.2
196 | RRVR | ≤ 0.2
197 | HMPE | ≤ 0.2
198 | YFYG | ≤ 0.2
199 | HREA | ≤ 0.2
200 | AMMT | ≤ 0.2
201 | NSIR | ≤ 0.2
202 | SSRY | ≤ 0.2
203 | SCHH | ≤ 0.2
204 | RHVF | ≤ 0.2
205 | EKTG | ≤ 0.2
206 | PLKL | ≤ 0.2
207 | RYPP | ≤ 0.2
208 | AWHV | ≤ 0.2
209 | NHAG | ≤ 0.2
210 | LVQN | ≤ 0.2
211 | NSQC | ≤ 0.2
212 | ISHH | 0.237
213 | NNEL | ≤ 0.2
214 | YRMS | ≤ 0.2
215 | SVID | ≤ 0.2
216 | TDTW | ≤ 0.2

Row | Variant | one-hybrid fitness for binding parS DNA
217 | QQIK | ≤ 0.2
218 | QAHG | ≤ 0.2
219 | RYCT | 0.852
220 | LWTE | ≤ 0.2
221 | MVEG | ≤ 0.2
222 | EGVC | ≤ 0.2
223 | RWWM | ≤ 0.2
224 | LYAM | ≤ 0.2
225 | QDYT | ≤ 0.2
226 | EDQS | ≤ 0.2
227 | KVEY | ≤ 0.2
228 | FTHK | ≤ 0.2
229 | EHCG | ≤ 0.2
230 | TTWP | ≤ 0.2
231 | GRRV | ≤ 0.2
232 | AVIN | ≤ 0.2
233 | ALVK | ≤ 0.2
234 | RAKT | 0.824
235 | KGTC | ≤ 0.2
236 | MPNR | ≤ 0.2
237 | INPL | ≤ 0.2
238 | VRKA | ≤ 0.2
239 | LGRE | ≤ 0.2
240 | KAAG | ≤ 0.2

Row | Variant | one-hybrid fitness for binding parS DNA
241 | LFPG | ≤ 0.2
242 | RYGM | 0.293
243 | PINP | ≤ 0.2
244 | SSFT | ≤ 0.2
245 | RFLS | 0.997
246 | HQQY | ≤ 0.2
247 | YNRP | ≤ 0.2
248 | AAPP | ≤ 0.2
249 | DDLS | ≤ 0.2
250 | DFLT | ≤ 0.2
251 | DRRP | ≤ 0.2
252 | ITQG | ≤ 0.2
253 | HAGT | ≤ 0.2
254 | RMPR | ≤ 0.2
255 | RITP | ≤ 0.2
256 | TSVG | ≤ 0.2
257 | QKKI | ≤ 0.2
258 | RMLR | ≤ 0.2
259 | NWPR | ≤ 0.2
260 | RIVY | 0.469
261 | RGYR | ≤ 0.2
262 | DNKI | ≤ 0.2
263 | LGWI | ≤ 0.2
264 | TAHQ | ≤ 0.2

Row | Variant | one-hybrid fitness for binding parS DNA
265 | PKGC | ≤ 0.2
266 | MILR | ≤ 0.2
267 | TPIH | ≤ 0.2
268 | RPDE | ≤ 0.2
269 | RWKK | ≤ 0.2
270 | YSTN | ≤ 0.2
271 | TYAS | ≤ 0.2
272 | VFKP | ≤ 0.2
273 | ACSP | ≤ 0.2
274 | HSRV | ≤ 0.2
275 | YKEG | ≤ 0.2
276 | VRQV | ≤ 0.2
277 | ADKV | ≤ 0.2
278 | GMQL | ≤ 0.2
279 | RVIM | 0.261
280 | PAYF | ≤ 0.2
281 | GGQY | ≤ 0.2
282 | TGVK | ≤ 0.2
283 | LPYC | ≤ 0.2
284 | DWKR | ≤ 0.2
285 | MTGS | ≤ 0.2
286 | SDWT | ≤ 0.2
287 | WMDG | ≤ 0.2
288 | RADP | ≤ 0.2

Row | Variant | one-hybrid fitness for binding parS DNA
289 | LNPF | ≤ 0.2
290 | YCQD | ≤ 0.2
291 | IGSH | ≤ 0.2
292 | TFPT | ≤ 0.2
293 | VMDR | ≤ 0.2
294 | VLAA | ≤ 0.2
295 | QFAL | ≤ 0.2
296 | PAPK | ≤ 0.2
297 | PQMK | ≤ 0.2
298 | QPIN | ≤ 0.2
299 | RFDE | ≤ 0.2
300 | RVSA | 0.581
301 | SCRC | ≤ 0.2
302 | STRD | ≤ 0.2
303 | AYTK | ≤ 0.2
304 | GAMC | ≤ 0.2
305 | RPYG | ≤ 0.2
306 | HTDA | ≤ 0.2
